The source gives no read counts; variants with many changes may rest on few reads.
B1: OR4K15 (parent)
chain: GUUAACGGUCAUAGGCCAUGGAAACUAGGAGCACCAUUUCGCUGCCAGUGAAGAAAUGAACAAAGAAAAUCUGGGCCAGGCAGGCAUCAAAAGAAAUAGUCUUGCGCUCAACCAGAAAGUCUGUAAUCAUUUUAAGGGUA

Variants of: B1
Assay: self-cleavage, relative activity (ratio to wild type); higher = more cleavage; in vitro, sequencing; the parent is a self-cleaving ribozyme

| Variant | self-cleavage |
| --- | --- |
| GUUAACGGUCAUAGGCCAUGGAAACUAGGAGCACCAUUUCGCUGCCAGUGAAGAAAUGAACAAAGAGAAUCUGGGCCAGGCAGGUACCAAAAGAAAUAGUCCUGCGCUCAACCAGAAAGUCUGUAAUCAUUUUAAGGGUA [A67G C85U U87C U102C] | 0.94 |
| GUUAACGGUCGUAGGCCAUGGAAACUAGGAGCACCAGUUCGCUGCCAGUGAAGAAAUGAACAAAGAAAAUCUGGGCCAGGCAGGCAUCAGAAGAAAUAGUCUUGCGCUCAACCAGAAAGUCUGUAAUCAUUUUAAGGGUA [A11G U37G A90G] | 0.76 |
| GUUAACGGUCAUAGGCCAUGGAAACUAGGAGCACCAUUUCGCUGCCAGUGAGGAAAUGAACAAAGAAAAUCUGGGCCAGGCAGGCAUCAAAAGAAAUAGUCUAGCGCUCAACCAGAAAGUCUAUAAUCAUUUUAAGGGUA [A52G U103A G123A] | 0.91 |
| GUUAACGGUCAUAGGCCAUGGAAACUAGGAGCACCAUUUCGCUGCCAGUGAUGAAAUGAACAAAGGAAAUCUGGGCCAGGCAGGCAUCAAAAGAAAUAGUCUUGCGCUCAACCAGAAAGUCUGUAAUCAUUCUAAGGGUA [A52U A66G U132C] | 1.12 |
| GUUAACGGUCAUAGGCCAUGGAGACUAGGAGCACCAUCUCGCUGCCAGUGAAGAAAUGAACAAAGAAAAUCUGGGCCAGGCAGGCAUCAAAAGAAAUAGUCUUGCGCUCAACCAGAAAGUCUGUAAUCACUUUAAGGGUA [A23G U38C U130C] | 0.17 |
| GUUAACGGUCAUAGGCCAUGGAAACUAGGAGCACCAUUUCGCUGCCUGUGAAGGAAUGAACAAAGAAAAUCUGGGCCAGGCAGGCAUCAAAAGAAAUAGUCUUGCGCUCAGCCAGAAAGUCUGUAAUCAUUUUAAGGGUA [A47U A54G A111G] | 0.01 |
| GUUAACGGUCAUAGGCCAUGGAAACUAGGAGCUCCAUUUCGCUGCCAGUGAAGAAAUGAACAAAGAAAAUCUGGGCCAGGCAGGCAUCAAAAGAAUUAGUCUUGCGCUCAACCAGAAAGUCUGUAAUCACUUUAAGGGUA [A33U A96U U130C] | 2.05 |
| GUUAACGGUCAUAGGCCAUGGAAACUAGGAGCACCAUUUCGCUGUCAGUGAAGAAACGAACAAAGAGAAUCUGGGCCAGGCAGGCAUCAAAAGAAAUAGUCUUGCGCUCAACCAGAAAGUCUGUAAUCAUUUUAAGGGUA [C45U U57C A67G] | 1.02 |
| GUUAACGGUCAUAGGCCGUGGAGACUAGGAGCACCAUUUCGCUGCCAGUGAAGAAAUGAACAAAGAAAAUCUGGGCCAGGCAGGCAUCAAAAGAAAUAGUCUUGCGCUCGACCAGAAAGUCUGUAAUCAUUUUAAGGGUA [A18G A23G A110G] | 0.2 |
| GUUGACGGUCAUAGGCCAUGGAAACUAGGAGCACCAUCUCGCUGCCAGUGAAGAAAUGAACAAAGAAAAUCUGGGCUAGGCAGGCAUCAAAAGAAAUAGUCUUGCGCUCAACCAGAAAGUCUGUAAUCAUUUUAAGGGUA [A4G U38C C77U] | 1.15 |
| GUUAACGGUCAUAGGCCAUGGAAACUAGGAGCACCAUUUCGCUGCCAGUGAAGAAAUGAACAGAGAAAAUCUGGGCCGGGCAGGCAUCAAUAGAAAUAGUCUUGCGCUCAACCAGAAAGUCUGUAAUCAUUUUAAGGGUA [A63G A78G A91U] | 0.45 |
| GUUAACGGUCAUAGGCCAUGGAGACUAGGAGCACCAUUUCGCUGCCAGUGAAGAAAUGAACAAAGAAAAUCUGGGCCAGGCAGGCAUCAAAAGAAAUAGUCUUGCGCUCAACCAGAGAGUCCGUAAACAAUUUAAGGGUA [A23G A117G U122C U127A U130A] | 1.07 |
| GUUAACGGUCAUAGGCCAUGGAGACUAGGAGCACCAUUUCGCUGCCAGAGAAGAAAUGAACAAAGAAAAUCUGGGCCGGGCAGGCAUCAAAAGAAAUAGUUUUGCGCUCAACCAGAAAGUCAGUAAUCAUUUUAAGGGUA [A23G U49A A78G C101U U122A] | 0.08 |
| GUUAACGGCCAUAGGCCAUGGAAACUAGGAGCACCAUUUCGCUGCCGGUGAAGAAAUGAACAAAGAAAAUCUGGACCAGGCAGGCAUCAAAAGGAAUAGUCUUGCGCUCAACCAGAAAGUCUGUAAUCAUUUUAAGGGUA [U9C A47G G75A A94G] | 0.15 |
| GCUAACGGUCAUAGGCCAUGGAAACUAGGAGCACCAUUUCGCUGCCGGUGAAGAAAUGAACAAGGAAAAUCUGGGCCCGGCAGGCAUCAAAAGAAAUAGUCUUGCGCCCAACCAGAAAGUCUGUAAUCAUUUUAAGGGUA [U2C A47G A64G A78C U108C] | 0.02 |
| GCUAACGGUCAUAGGCCAUGGAAACUAGGAGCACCAUUUCGCUGCCGGUGAAGAGAUGAACAAAGAAAAUCAGGGCCAGGCAGGCAUCAAAAGAAAUAGUCUUGCGCUUAACCAGAGAGUCUGUAAUCAUUUUAAGGGUA [U2C A47G A55G U72A C109U A117G] | 0.08 |
| GUAAACGGUCACAGGCCAUGGAAACUAGGAGCACCAUUUCGCUGCCAGUGAAGAAAUGAACAAAGAAAAUCUGGGCCAGGCAGGCAUCAAAGGAAAUAGUCUUGCGCUCAACCAGAAAGUCUGUAAUCAUUUUAAGGGUA [U3A U12C A92G] | 1.71 |
| GUUAACGGUCAUAGGCCAUGGAAACUAGGAGCACCGUUUCGCUGCCAGCGAAGAAAUGAACAAAGAGAAUCUGGGCCAGGCAGGCAUCAAAAGAAAUAGUCUUGCGCUCAACCAGAAAGUCUGUAAUCAUUUUAAGGGUA [A36G U49C A67G] | 1.49 |
| GUUAACGGUCAUAGACCAUGGAAACUAGGAGCACCAUUUCGCUGCCAGUGAAGAAACGAACAAAGAAAAUCUGGGCCAGGCAGGCAUCAAAAGAAAUAGUCUUGCGCUCAACCAGAAAGUCUGUAAGCAUGUUAAGGGUA [G15A U57C U127G U131G] | 0.94 |
| GUUAACGGUCAUAGGCCAUGGAGACUAGGAGCACCAUUUCGCAGCCAGUGAAGAAAUGAACAAAGAAAAUCUGGGCCAGGCAGGCAUCAAAAGAAAUAGUCUUGCGCUCAACCAGAAGGUCUGUAACCAUUUUAAGGGUA [A23G U43A A118G U127C] | 0.17 |
